Data published in patent publication US5990094A, “Inhibitors of sorotonin N-acetyltransferase” (The Rockefeller University, priority 1998, dated 1999).

Assays:
[1] = substrate: CC(=O)SCCNC(=O)CCNC(=O)[C@H](O)C(C)(C)COP(=O)(O)OP(=O)(O)OC[C@H]1O[C@@H](n2cnc3c(N)ncnc32)[C@H](O)[C@@H]1OP(=O)(O)O; test: purified protein, by the assay type; conditions: other: two-substrate kinetics, sequential (ternary complex) fit; pH 6.8; 30.0 °C
[2] = substrate: NCCc1c[nH]c2ccccc12; test: Two-substrate steady state kinetics with GST-AANAT; type: biochemical, sheep; conditions: other: two-substrate kinetics, sequential (ternary complex) fit; pH 6.8; 30.0 °C

B1: GST-AANAT (Ovis aries) (protein)
chain: [here about 200 residues without letters]SDLVPRGSPEFPGRLEMSTPSVHCLKPSPLHLPSGIPGSPGRQRRHTLPANEFRCLTPEDAAGVFEIEREAFISVSGNCPLNLDEVQHFLTLCPELSLGWFVEGRLVAFIIGSLWDEERLTQESLALHRPRGHSAHLHALAVHRSFRQQGKGSVLLWRYLHHVGAQPAVRRAVLMCEDALVPFYQRFGFHPAGPCAIVVGSLTFTEMHCSLRGHAALRRNSDR
notes: The entire open reading frame of the DNA encoding sheep AANAT in the plasmid vector pET15b; made in house; host or cells: Escherichia coli BL21(DE3)pLysS
With B1 as the protein, how does the Km [1] read?
The Km was 212 µM.

And the Km [2]?
Its Km is 147 µM.
